# Assay results published in the RNAGym collection of RNA variant scans (doi:10.1093/nar/gkz1192).
# Read counts are not given, so values of variants with three or more changes are uncertain.
# B1: CPEB3 Ribozyme (parent)
# chain: UAACAGGGGGCCACAGCAGAAGCGUUCACGUCGCAGCCCCUGUCAGAUUCUGGUGAAUCUGCGAAUUCUGCUGUAUAUCUC
# Variants of: B1
# Assay: self-cleavage, relative activity (ratio to wild type); higher = more cleavage; in vitro, sequencing
# Outline: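 Relative activity was defined as the cleaved/total read fraction for a variant divided by the same fraction for the unmutated ribozyme. CPEB3 self-cleaving ribozyme libraries were made by rounds of error-prone PCR, barcoded, and transcribed in vitro with T7 RNA polymerase for 5 hours at 37°C, and cleavage ran through transcription plus a 15 min DNase I step before EDTA. Illumina sequencing of template-switched reverse transcripts gave the reads, and DNA sequencing mapped the barcodes. Averages come from three batches, using variants with at least 5 reads.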
row,Variant,self-cleavage
1,A18G C39U U67C U72C,0.06
2,A18G G30A A77G,0.34
3,A18G C29U U49C A57U,0.13
4,A18G C27A A28G A35G,0.21
5,A18G U26A A35G U41C U51A U54C A56U,0.14
6,A18G U43A C62G,0.18
7,A18G C23A G42A U74C A75G,0.06
8,A18G G46U U48C,0.2
9,A18G A45G A47G G55A,0.12
10,A18G U25A U41C U49A G52C C68G U69C,0.11
11,A18G U26C G52A A56G U72C,0.15
12,A18G U41C U60A,0.13
13,A18G U41C U60G,0.32
14,A18G C39U A64G U72C,0.09
15,A18G G22C U31C A65G,0.06
16,A18G U48C G55A A75G,0.14
17,A18G A77U U78C,0.81
18,A18G A77U U78A,0.8
19,A18G A35G U49A U66C U72C,0.16
20,A18G G55C A64G U69A,0.13
21,A18G U48C U80C,0.56
22,A18G G24A C40U A45G U69A U72A,0.21
23,A18G G19U A56G U67C,0.1
24,A18G U25C U54G U80C,0.26

row,Variant,self-cleavage
1,A18G U43C G46U U54G U60A U78C,0.04
2,A18G G22U U26C A64G U78C,0.15
3,A18G G30A U31A U60A,0.48
4,A18G A35U G36A U49C U76A,0.09
5,A18G A45G U49A U51A A75G A77U,0.2
6,A18G A35U U51A,0.11
7,A18G A45G U60C,0.79
8,A18G A45G U60G,0.32
9,A18G U25C U31C C32U U48A U69C,0.05
10,A18G A65G U78C U80A,0.17
11,A18G C38G U43C G73U U78C,0.05
12,A18G C32U U49C U51A U69A,0.06
13,A18G U41C G53A G63A,0.42
14,A18G U26A U49C,0.14
15,A18G C38A A64G,0.09
16,A18G G46U A57G U76A,0.1
17,A18G U25C A47U U49C U66A U69A U80C,0.15
18,A18G U25C G30A C37G U48C U66C,0.18
19,A18G U25C G46C U49A U69C U72C,0.21
20,A18G U26C A28G G33C U43C U54C U76A,0.18
21,A18G A45G U49A,0.21
22,A18G A47G U48C A57G U76A,0.94
23,A18G U25A U67C U74G,0.11
24,A18G U31G G53A,0.56

row,Variant,self-cleavage
1,A18G A35G U41G A45G U76C,0.08
2,A18G U41C U66C U78C,0.37
3,A18G U43C A57C U67C,0.11
4,A18G A56G U60C,0.24
5,A18G U25C G33C U60A A77G U78C,0.05
6,A18G G24C A35G A64U U72A A75U,0.06
7,A18G C50U U74A U78C,1.2
8,A18G U31A A35G U54C,0.58
9,A18G C39A A57G U72A,0.08
10,A18G A28G U54C U78C,0.19
11,A18G G33A A65G C71U U80A,0.12
12,A18G C38G C81U,0.05
13,A18G C44A U67C,0.14
14,A18G A57G U58A A65U A75G U78C,0.13
15,A18G A35U U43A U58C,0.16
16,A18G U43C A45C A57G U58C G63A,0
17,A18G U48C U58C C62A A75U,0.16
18,A18G U41C C68A,0.19
19,A18G A35G A56G U58C C71U,0.31
20,A18G A57U U60C,0.18
21,A18G C29U U49C U69C A77G,0.21
22,A18G G19A A20C A57G,0.04
23,A18G C29U A56U A65G,0.31
24,A18G G24A G33A U51G A64U U69G,0.04

row,Variant,self-cleavage
1,A18G U26G A77U,0.16
2,A18G U25G A45G,0.37
3,A18G U25G U58G,0.29
4,A18G U41A A56G U80C,0.28
5,A18G G19U C23G U25A U43C A57G U80C,0.04
6,A18G U25C U41C C62U,0.26
7,A18G U25A A35G C40U U69C,0.12
8,A18G A28U A65G,0.14
9,A18G A56G U72A U78C,0.14
10,A18G A35U U41G A47G,0.19
11,A18G U26C U31C U51C,0.06
12,A18G G33U U72G U80A,0.07
13,A18G U48C U69C,0.8
14,A18G U31C A64G,0.2
15,A18G G24C U60C,0.21
16,A18G U25G A47G G53A A56G,0.33
17,A18G U43A A56C U66C,0.23
18,A18G U26C A35G,0.36
19,A18G U31C U51A U54A A64G,0.15
20,A18G A56U U72A,0.17
21,A18G A28G U72C,0.28
22,A18G U25A A57U,0.17
23,A18G U25C U26C A35U,0.07
24,A18G G24U U49C,0.4

row,Variant,self-cleavage
1,A18G A56G A65U,0.1
2,A18G C38U U43C U60A,0.13
3,A18G U43C U60A U74C A75G,0.07
4,A18G A47U U49C U58C U67C,0.08
5,A18G G19U U26C A35U U43C,0.05
6,A18G C23U A47G,0.25
7,A18G A28G U60C,0.18
8,A18G U26G C39U A56G U60G U66A C79A,0.03
9,A18G U31C A45G U67A,0.05
10,A18G U26C G33A A47G A64G,0.18
11,A18G U41G A57G U72C,0.07
12,A18G U26A A65G U72C,0.16
13,A18G A77C U80C,0.72
14,A18G C39G U49C U76A,0.03
15,A18G U43C U54C U67C,0.11
16,A18G A45U U78A,0.43
17,A18G C29A U51C A75G,0.17
18,A18G U43C A56U U72C,0.11
19,A18G U43C A56G U60C A75G,0.06
20,A18G U41C U51C G73A,1.15
21,A18G U43A U51G U67A,0.36
22,A18G A45G A56G,0.36
23,A18G U25C U48A,0.05
24,A18G U41C A45U A47U U49C A57G U74A,0.02

row,Variant,self-cleavage
1,A18G G19U A21G C23U U25C,0.27
2,A18G A35U A65C,0.16
3,A18G C23U U31A U41A,0.22
4,A18G G33A U41C A45G U49C A77G,0.16
5,A18G A45U U54G,0.31
6,A18G U31G A35G U54C U66C U76A A77G,0.5
7,A18G G63A U80C,0.6
8,A18G U49A U78C,0.34
9,A18G A56U A64G,0.23
10,A18G U26C C32U U80A,0.24
11,A18G A45U A64U,0.18
12,A18G C62U A64G U72A,0.21
13,A18G U41C U67C,0.16
14,A18G G30C U43C A47G U58C A64G U72A,0.05
15,A18G A65G A77U C81U,0.38
16,A18G U31C A57G,0.53
17,A18G G19U A45U U69C,0.06
18,A18G G63C U66C C71A,0.13
19,A18G C32A C62U,0.07
20,A18G U26C A47C U66C U69G U72A,0.06
21,A18G A57G U60C A64G,0.2
22,A18G A45U A56U U80A,0.26
23,A18G U31A A65G U67C U72C,0.12
24,A18G U26A U48A,0.26

row,Variant,self-cleavage
1,A18G U43C C68A,0.15
2,A18G U26C U43C A45G,0.38
3,A18G U41A A64G A77U,0.06
4,A18G G36U C39G C50U,0.15
5,A18G U41A C44A,0.26
6,A18G C23U U25C U31A U41A A47U U72C,0.1
7,A18G A35G A64G,1.27
8,A18G U49A A56U U67C,0.13
9,A18G G24A U49C,0.16
10,A18G U43C U60C A65G U69A U80C,0.06
11,A18G C38A C40U G52A,0.07
12,A18G U31A U54C U66C,0.18
13,A18G U25G C27U U69A U80C,0.07
14,A18G U25C U41A U49A,0.06
15,A18G A56G U67A,0.32
16,A18G A65G U69A U72C,0.2
17,A18G U25C A57G U78A U80C,0.14
18,A18G A56G U72C U78C U80C,0.49
19,A18G A35U U41A A45U U58C,0.2
20,A18G U31A A57G U80G,0.26
21,A18G A28G U66A U78C,0.18
22,A18G C34G C81U,0.39
23,A18G G19C A20G U41A U72G,0.18
